The other results are listed elsewhere or left out. At the low end of the ranking the order means little.
biological target: SIX1 homeodomain (reference allele) (UniProt Q15475); test: universal protein binding microarray; conditions: Universal all-10-mer PBM (8x60K, AMADID 030236), 300 nM GST-tagged protein, Alexa Fluor 488 anti-GST; buffer, salt, pH and temperature not stated; high values mean tight binding; most listed sequences are background and not binding sites; double strand, one strand shown

| Sequence | binding signal |
| --- | --- |
| GGACTTTA | -0.126 E-score |
| ACGTAAAG | -0.112 E-score |
| TCAGAAGA | -0.196 E-score |
| ACTGGTTG | -0.0512 E-score |
| GCGAAAAA | -0.102 E-score |
| ACTGCTTG | -0.0467 E-score |
| CGTCGGCA | -0.105 E-score |
| AATGTGCC | -0.179 E-score |
| ATAGGCGG | 0.197 E-score |
| GGTGCTTA | -0.0807 E-score |
| ACAAGTAG | 0.00907 E-score |
| ACGCCGGC | 0.04 E-score |
| CATTTCCG | -0.206 E-score |
| GCCGAGGA | 0.149 E-score |
| ACATATGT | -0.19 E-score |
| TCGTAAAA | -0.00307 E-score |
| AGACGCAG | 0.143 E-score |
| TGACTAAA | -0.33 E-score |
| CTTTCGCC | -0.115 E-score |
| AGCTCAGC | -0.23 E-score |
| GAGGTGAC | 0.0853 E-score |
| CGGGTCGC | 0.036 E-score |
| GGAGTCAC | -0.0259 E-score |
| ATACAATC | 0.197 E-score |
| ATGACGAG | -0.0365 E-score |

| Sequence | binding signal |
| --- | --- |
| ATTAGTCA | 0.0585 E-score |
| CATTCCGC | -0.222 E-score |
| CCATGTCA | -0.0101 E-score |
| GTTACCCA | -0.0711 E-score |
| ACGACGTA | 0.0592 E-score |
| CTTCACTC | -0.0912 E-score |
| CCATTGAG | -0.0934 E-score |
| CGAGCCTC | 0.0722 E-score |
| AATAGGGT | 0.105 E-score |
| ACACATTA | -0.13 E-score |
| CCCGCATC | 0.106 E-score |
| AGTTTGTC | -0.248 E-score |
| TACTCAAA | 0.0473 E-score |
| AAACTACA | 0.0584 E-score |
| CGAGACAA | -0.172 E-score |
| CAAATTGG | -0.0615 E-score |
| AATTGTAT | 0.162 E-score |
| CAGTTGCC | -0.128 E-score |
| GATCCATC | 0.364 E-score |
| GCCACAAC | -0.208 E-score |
| CAAGAATC | 0.0443 E-score |
| ATGTTGGG | -0.122 E-score |
| CATGATCG | 0.144 E-score |
| CAAAACTC | -0.0727 E-score |
| ATGTGGAG | -0.126 E-score |

| Sequence | binding signal |
| --- | --- |
| AACCGGGT | 0.119 E-score |
| AGCCCGCC | -0.0693 E-score |
| AACCTAAC | -0.201 E-score |
| AAATCGAT | 0.114 E-score |
| GTAGGTAA | -0.12 E-score |
| AGCGCCGG | -0.0618 E-score |
| GTCGACGA | -0.161 E-score |
| AGCAATAG | 0.05 E-score |
| ACCCAGAG | 0.0386 E-score |
| CCGTCTAA | 0.172 E-score |
| ACGTGCTA | -0.0495 E-score |
| TACCGCGA | 0.25 E-score |
| CCGATTGC | 0.0553 E-score |
| CAATATCC | 0.37 E-score |
| CGTGTGAC | -0.041 E-score |
| AGAGCGAC | -0.269 E-score |
| AGCGTGGC | -0.343 E-score |
| GACATATC | 0.386 E-score |
| ACCGTCCG | -0.222 E-score |
| AATTCCGT | -0.12 E-score |
| CATCGATG | 0.0867 E-score |
| CTCGGCCC | -0.134 E-score |
| GAACGGGC | -0.21 E-score |
| AGAAATGA | -0.2 E-score |
| AAATAAAC | -0.158 E-score |

| Sequence | binding signal |
| --- | --- |
| TAAAAAAA | -0.287 E-score |
| AAGAGGGA | -0.0679 E-score |
| AGTGAGCC | 0.225 E-score |
| AATGATAT | 0.44 E-score |
| ACTAATCA | -0.0219 E-score |
| GTTAACGA | -0.116 E-score |
| AACTAGGT | 0.123 E-score |
| CGAAGGTC | -0.256 E-score |
| GCGTTAAA | -0.168 E-score |
| CACGCATA | -0.00632 E-score |
| CCTCATGC | -0.0553 E-score |
| AGGACTCG | -0.0797 E-score |
| CGATTAGA | 0.205 E-score |
| GCCACCTA | -0.219 E-score |
| GCAGAAGA | -0.123 E-score |
| CGCGAGCC | -0.0245 E-score |
| AAGTGTCT | 0.0365 E-score |
| CTATCAGC | 0.202 E-score |
| AAAAAAGT | -0.167 E-score |
| AGTGGAAT | -0.0303 E-score |
| GGAGTTGA | 0.00327 E-score |
| ACTTAGTA | -0.0138 E-score |
| CATTTCAC | -0.194 E-score |
| ATCAATGA | 0.144 E-score |
| GCCGCGCA | -0.167 E-score |

| Sequence | binding signal |
| --- | --- |
| GCTGCCTA | -0.0964 E-score |
| CCACATAG | -0.0737 E-score |
| CGATTGCA | -0.108 E-score |
| GACTAAGC | -0.296 E-score |
| AGTGATCC | 0.452 E-score |
| CGAGTCTA | -0.136 E-score |
| ATCCAACC | 0.173 E-score |
| AGAAACGA | -0.112 E-score |
| TCAGACGA | 0.0458 E-score |
| ATAGGCCA | -0.082 E-score |
| GCACTCAC | -0.151 E-score |
| AGTACATC | -0.0814 E-score |
| ACGTCCTC | -0.13 E-score |
| CGCCAAAA | -0.0243 E-score |
| AACGTGAA | -0.203 E-score |
| CCCCTTGC | 0.0175 E-score |
| CTTCTGCA | 0.112 E-score |
| CACCCGTC | 0.0565 E-score |
| CGCGTACG | -0.0858 E-score |
| GGTGAACC | 0.0678 E-score |
| CAGCACAC | -0.0935 E-score |
| AATTACAG | -0.118 E-score |
| AAAGGGTA | 0.0288 E-score |
| AAGTCCTC | -0.213 E-score |
| CCAGGAGA | 0.158 E-score |

| Sequence | binding signal |
| --- | --- |
| CCCGTGTA | 0.171 E-score |
| AAGCGGCT | -0.203 E-score |
| AGAATCAA | 0.0512 E-score |
| GTATTTAA | 0.172 E-score |
| GACCTGCA | -0.17 E-score |
| ACTGTAAG | -0.00042 E-score |
| ATCACCCG | 0.397 E-score |
| ACGTGCCG | -0.122 E-score |
| GTAAGGTA | 0.0322 E-score |
| CGGAGGAG | 0.0602 E-score |
| ATCTCCAA | 0.142 E-score |
| GATGGTGC | -0.197 E-score |
| AACAGGTA | 0.00503 E-score |
| GTCCTCAC | -0.0408 E-score |
| AGTGACGA | -0.0926 E-score |
| CCGAGCCG | 8.5e-05 E-score |
| GACGTCCC | -0.164 E-score |
| ATATTTCC | 0.169 E-score |
| GGTTCGTA | -0.0075 E-score |
| CACTTACG | -0.0189 E-score |
| TCGCAAAA | -0.163 E-score |
| ATCGTTCA | 0.118 E-score |
| ACCCTTAT | 0.0845 E-score |
| ACGTCGCA | -0.173 E-score |
| GCTTGTGA | -0.222 E-score |

| Sequence | binding signal |
| --- | --- |
| CAATTAGA | 0.136 E-score |
| GCGATCTA | 0.218 E-score |
| ACTAATGG | -0.12 E-score |
| CGCTGTAC | -0.11 E-score |
| ATACCTCA | 0.352 E-score |
| ACACCACA | 0.328 E-score |
| ACTTAATC | 0.0193 E-score |
| CTCGCGAC | -0.0642 E-score |
| GGAGTCTA | -0.086 E-score |
| CACTACAC | 0.129 E-score |
| CCAAGAAG | -0.0271 E-score |
| CTGAGCTA | -0.084 E-score |
| CGCTCGGC | -0.024 E-score |
| GGGCCACA | -0.0276 E-score |
| CACAAGTG | -0.114 E-score |
| GGCCAATA | -0.0372 E-score |
| TAGCCACA | 0.0749 E-score |
| CGTGACCA | -0.118 E-score |
| CGGGAACA | -0.0886 E-score |
| GACGTGGC | -0.281 E-score |
| ACGATCCA | 0.284 E-score |
| AACCAAGG | -0.173 E-score |
